Laboratory results from the supplement of paper PMC10670038.
Several values for one entry are separate records, joined by “and”; a condition that tells them apart may be missing. Equal values may be shown once. Where a name gives a salt, the structure may show the parent alone. ± gives the standard deviation of the averaged measurements. Whole data set: some 2,000 compounds, median “relative cell viability vs DMSO, compound + 0.2 uM CuET” near 1, cut for the lowest 2% near 0.25. Some of the results follow.

Each molecule was assayed on TE10 (assay: relative cell viability vs DMSO, compound + 0.2 uM CuET (fraction); TE10 is an esophageal squamous carcinoma line; higher = less cytotoxic). Details: 2 µM; co-treatment: CuET (bis(diethyldithiocarbamate)copper) 0.2 uM; 48 h.
Procedure: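 TE10 ESCC cells (1,000/well, 384-well plates) were treated with Selleck bioactive library compounds at 2 uM combined with 0.2 uM CuET (copper diethyldithiocarbamate) for 48 h. Viability was read by CellTiter-Glo and expressed relative to DMSO wells. Two technical replicates (A, B).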

In order of rising relative cell viability:
1. COCCOc1nc(-c2ccc(Cl)c(Cl)c2)n(-c2ccc(NC(=O)CCl)cc2)n1 [MI-2 (MALT1 inhibitor)]  0.115 ± 0.0096
2. Cc1ccc(S(=O)(=O)c2ccc([N+](=O)[O-])o2)cc1  0.175 ± 0.0036
3. Nc1nc(F)nc2c1ncn2[C@@H]1O[C@H](COP(=O)(O)O)[C@@H](O)[C@@H]1O [Fludarabine Phosphate]  0.325 ± 0.17
4. CC1(C)CCC(c2ccc(Cl)cc2)=C(CN2CCN(c3ccc(C(=O)NS(=O)(=O)c4ccc(N[C@H](CCN5CCOCC5)CSc5ccccc5)c(S(=O)(=O)C(F)(F)F)c4)cc3)CC2)C1 [ABT-263 (Navitoclax)]  0.368 ± 0.097
5. COc1cc2ncnc(Sc3nnc(C)s3)c2cc1OC  0.639 ± 0.09
6. O=C(NOCC1CC1)c1ccc(F)c(F)c1Nc1ccc(I)cc1Cl  0.64 ± 0.17
7. CC(=O)Nc1cccc(-n2c(=O)n(C3CC3)c(=O)c3c(Nc4ccc(I)cc4F)n(C)c(=O)c(C)c32)c1  0.664 ± 0.049
8. COC(=O)Nc1nc2cc(C(=O)c3cccs3)ccc2[nH]1 [Nocodazole]  0.681 ± 0.07
9. Oc1c(Br)cc(Br)c2cccnc12 [Broxyquinoline]  0.689 ± 0.033
10. C[C@@H](NCCCc1cccc(C(F)(F)F)c1)c1cccc2ccccc12 [Cinacalcet HCl]  0.733 ± 0.12
11. CC[C@H]1[C@@H](O)[C@@H]2[C@H](CC[C@]3(C)[C@@H]([C@H](C)CCC(=O)O)CC[C@@H]23)[C@@]2(C)CC[C@@H](O)C[C@@H]12 [Obeticholic Acid]  0.797 ± 0.16
12. CN1CCN(S(=O)(=O)c2ccc(-c3cnc(N)c(C(=O)Nc4cccnc4)n3)cc2)CC1  0.802 ± 0.14
13. Nc1ccc2ncnc(NCCc3ccc(Oc4ccccc4)cc3)c2c1  0.8482 ± 0.0067
14. CC(C)c1c(C(=O)Nc2ccccc2)c(-c2ccccc2)c(-c2ccc(F)cc2)n1CC[C@@H](O)C[C@@H](O)CC(=O)O [Atorvastatin Calcium]  0.931 ± 0.01
15. C=C(C)[C@@H]1CC[C@]2(C(=O)O)CC[C@]3(C)[C@H](CC[C@@H]4[C@@]5(C)CC[C@H](O)C(C)(C)[C@@H]5CC[C@]43C)[C@@H]12 [Betulinic acid]  0.945 ± 0.13
16. CCN[C@H]1CN(CCCOC)S(=O)(=O)c2sc(S(N)(=O)=O)cc21 [Brinzolamide]  0.949 ± 0.069
17. O=C(NC[C@H](O)CN1CCc2ccccc2C1)c1cc(NC2COC2)ncn1  0.956 ± 0.038
18. CC(C(=O)O)c1cccc(Oc2ccccc2)c1 (centres undefined) [Fenoprofen Calcium]  0.963 ± 0.063
19. CC(C)(C)c1cnc(CSc2cnc(NC(=O)C3CCNCC3)s2)o1  0.963 ± 0.093
20. COc1ccc(-c2coc3cc(O)ccc3c2=O)cc1 [Formononetin]  0.968 ± 0.14
21. O=C1NC(=O)C(c2cnc3ccccn23)=C1c1cn2c3c(cc(F)cc13)CN(C(=O)N1CCCCC1)CC2  0.97083 ± 4.9e-05
22. O=C1C(c2c(O)[nH]c3ccccc23)=Nc2ccccc21 [Indirubin]  0.978 ± 0.15
23. CCCCCOc1ccc(-c2ccc(-c3ccc(C(=O)N[C@H]4C[C@@H](O)[C@@H](O)NC(=O)[C@@H]5[C@@H](O)[C@@H](C)CN5C(=O)[C@H]([C@@H](C)O)NC(=O)[C@H]([C@H](O)[C@@H](O)c5ccc(O)cc5)NC(=O)[C@@H]5C[C@@H](O)CN5C(=O)[C@H]([C@@H](C)O)NC4=O)cc3)cc2)cc1  0.991 ± 0.011
24. CC(=Cc1ccc(C(=O)O)cc1)c1ccc2c(c1)C(C)(C)CCC2(C)C [TTNPB (Arotinoid Acid)]  1.01 ± 0.036
25. CCn1cc(C(=O)O)c(=O)c2cc(F)c(N3CCNCC3)nc21 [Enoxacin]  1.03 ± 0.012
26. COc1ccc(CC(C)NCC(O)c2ccc(O)c(NC=O)c2)cc1 (centres undefined) [Formoterol Hemifumarate]  1.04 ± 0.067
27. O=C(O)C(Cc1ccccc1[N+](=O)[O-])=NNc1nc(-c2ccc(Cl)c(Cl)c2)cs1  1.04 ± 0.16
28. CS(=O)(=O)c1ccc(C(=O)Nc2ccc(Cl)c(-c3ccccn3)c2)c(Cl)c1 [Vismodegib (GDC-0449)]  1.05 ± 0.12
29. C1N2CN3CN1CN(C2)C3 [Methenamine]  1.05 ± 0.1
30. CNc1nc(-c2ccc3c(N)n[nH]c3c2)cc(N2C[C@@H](C(=O)NC3CCCCC3)CC[C@H]2C)n1  1.06 ± 0.091
31. CNc1ncnc2c1ncn2[C@@H]1O[C@H](CO)[C@@H](O)[C@H]1O [N6-methyladenosine (m6A)]  1.06 ± 0.23
32. OC[C@@H](O)[C@@H](O)[C@H](O)[C@H](O)CO [D-Mannitol]  1.06 ± 0.036
33. CC(C)c1nc(N(C)S(C)(=O)=O)nc(-c2ccc(F)cc2)c1/C=C/[C@@H](O)C[C@@H](O)CC(=O)O [Rosuvastatin Calcium]  1.07 ± 0.046
34. CC(=O)OCC(=O)NCCCOc1cccc(CN2CCCCC2)c1 [Roxatidine Acetate HCl]  1.07 ± 0.064
35. O=C(COc1ccc(C(=O)c2ccccc2)cc1)NC1CCN(Cc2ccccc2)CC1 [AdipoRon]  1.11 ± 0.045
36. CC(C(=O)O)c1cccc(Oc2ccccc2)c1 (centres undefined) [Fenoprofen calcium hydrate]  1.15 ± 0.11
37. CC(=O)N[C@@H](CC(C)C)C(=O)N[C@@H](CC(C)C)C(=O)N[C@H](C=O)CCCNC(=N)N [Leupeptin Hemisulfate]  1.16 ± 0.025
38. OC(Cn1cncn1)(Cn1cncn1)c1ccc(F)cc1F [Fluconazole]  1.18 ± 0.1
39. Cc1ccc2c(c1)C(=O)C1(O)CCN(c3ccccc3)C1=N2 (single isomer, unassigned; (-)) [(-)-Blebbistatin]  1.19 ± 0.12
40. CC(C)OC(=O)C(C(=O)OC(C)C)=C1SC=CS1 [Malotilate]  1.19 ± 0.11
41. C[C@H](NCc1ccc(OCc2cccc(F)c2)cc1)C(N)=O [Safinamide Mesylate]  1.2 ± 0.021
42. NCCc1c[nH]cn1 [Histamine 2HCl]  1.22 ± 0.027
43. O=C(COc1cccc2c(=O)[nH]ccc12)c1ccccc1  1.23 ± 0.17
44. c1ccc2c(c1)CCCC2C1=NCCN1 (centres undefined) [Tetrahydrozoline HCl]  1.27 ± 0.14
45. CS(=O)(=O)c1ccc([C@@H](O)[C@@H](CF)NC(=O)C(Cl)Cl)cc1 [Florfenicol]  1.28 ± 0.081
46. O=C1NC(=O)C(c2ccccc2[N+](=O)[O-])=C1Nc1ccc(O)c(Cl)c1  1.28 ± 0.072
47. CCCc1ncc(C[n+]2ccccc2C)c(N)n1 [Amprolium HCl]  1.39 ± 0.11
48. Nc1[nH]cnc2ncnc1-2 [Adenine HCl]  1.89 ± 0.0031

With `COc1cc(Br)c(Nc2nc(-c3c(C)nc4ncccn34)cs2)c(Br)c1` the relative cell viability was 0.757 and 0.771.
